Some of the results follow.
T1: UNK ZnF1-3 (human, UniProt Q9C0B0 31-174)
T1 sequence: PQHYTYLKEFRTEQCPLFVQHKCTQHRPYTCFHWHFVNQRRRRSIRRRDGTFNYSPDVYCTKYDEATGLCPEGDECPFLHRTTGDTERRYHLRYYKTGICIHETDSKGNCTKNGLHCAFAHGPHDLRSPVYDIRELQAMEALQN

B1: chr8:95500983:95500984:-_ENSG00000164944_ENST00000437199|hu_hu|hu_hu_hu_mus_True|18_58 (ssRNA)
RNA: GGGAGUUCUACAGUCCGACGAUCAGAACACAUCUAUCGAGUAAAGGACCGUACAUGACGGCCUCUACCACUGCCUCCCACUAACAACUUUCCUCUCGAGCCUCCACUGCCGCUAUUUUGCACUAGCCAGGACGGUCCCAGGCCCAACAGAGGAUUGAGCAUCA
B2: chr15:40462788:40462789:+_ENSG00000156970_ENST00000287598|hu_mus|motif|central (ssRNA)
RNA: GGGAGUUCUACAGUCCGACGAUCAAAGCGGGGGUCAUUAUAAUAGCGCGUCUCUCCUUGGAGUGCUUCUAUCGCUCUCUCCACGGACGCUGACAUGUUACUCUCUUUCCCCCCUUGAGGGUAGUUCUGUUCUGUCCAAUUAAUCAACAGAGGAUUGAGCAUCA
B3: chr3:179287964:179287965:+_ENSG00000136518_ENST00000429709|hu_hu|hu_hu_hu_mus_True|18_68 (ssRNA)
RNA: GGGAGUUCUACAGUCCGACGAUCCUUGAGUGGUGAGAUGGCCUCCAUGUUCUCCCUGGGCACGCGGAGAGCAUUAGUGUCUAUGUAGUAGGUGGGCCCGCCCUGCUUGCCUUUGUCGCCAUCUAUUUCCAUCAUUGUACUUCCCAACAGAGGAUUGAGCAUCA
B4: 39934136_39934256_631_CDS_ENSG00000183337_ENST00000397354|human|control|control (ssRNA)
RNA: GGGAGUUCUACAGUCCGACGAUCUCCAGGCGGUGUUUUGUAUAUAGCACUGAAGCCAUUUGGGGGUUUUCCAGAGACGGCAGAAGCCUCCACUGUCUCGGGUGUAUUCGGUUUGAACUGCAUCUCUGGAUUUCUUUCCGAAGACAACAGAGGAUUGAGCAUCA
B5: chrX:91785444:91785445:-_ENSMUSG00000025151_ENSMUST00000026142|mus_hu|FALSE|FALSE (ssRNA)
RNA: GGGAGUUCUACAGUCCGACGAUCAUUGGCAUUGAGAGACUGAGAGAAAUUGUAGGUGGCAUUUGGGCCCACUUUAGUAGUGGCAUUCUGGGCCUUGAAGGCCAUCUCAGACUUGUUAGCAGCUAACUCACCAGUGGUUGCUGCCAACAGAGGAUUGAGCAUCA
B6: chr1:153634984:153634985:-_ENSG00000143621_ENST00000361891|hu_hu|FALSE|FALSE (ssRNA)
RNA: GGGAGUUCUACAGUCCGACGAUCUUCCUCUCCUUCCUUCUUCUCUGGUGGCUUCUCAUAAGCCUUUUCUGAAGGUGUUACUAUCACUCCAUCCCAGGUAGAUAUUUCAGAAGCAAGAUAGCUGGCAUCACCCUCCUGGCCAAGCAACAGAGGAUUGAGCAUCA
B7: chr12:88580095:88580096:-_ENSMUSG00000021038_ENSMUST00000072744|mus_mus|motif|central (ssRNA)
RNA: GGGAGUUCUACAGUCCGACGAUCACGUGCUGAAGCAGAUGGCUCACCACCUGGACAGUGUGCAGGUGUCAGAGGGACCCGGUAUCCCUCACACGUCCCUACACAAAGUUGACAGGGACAGUGCCGUGACAGCAGGUAGAUACUCAACAGAGGAUUGAGCAUCA
B8: chr2:9570881:9570882:+_ENSG00000119203_ENST00000238112|hu_mus|hu_hu_hu_mus_False|18_58 (ssRNA)
RNA: GGGAGUUCUACAGUCCGACGAUCACUUGUCUUCUGAAGGAACCAGGGCAGGGCUCCACAGUGAUCCAAAUGGAAAUGACUAAUUAACAGAAGGUCGAUCUCAGCUGGGUCGAUAAGAUCAAUAUAAGGAAGGGCAUCCAUUCCCAACAGAGGAUUGAGCAUCA
B9: chr1:39494447:39494448:+_ENSG00000168653_ENST00000372967|hu_mus|hu_hu_hu_mus_False|28_78 (ssRNA)
RNA: GGGAGUUCUACAGUCCGACGAUCGCACCGAGCGGCGUUCUUAUAGGGCUGUUCUGCACUCUGGAUUAUAAAGUGCCGGUCCAGGCUGAUGCCCAGCUUUUUCUGUAUGUCCAAGAAAGGCAUGGCUCUGCAGUGCCCUUGUCACAACAGAGGAUUGAGCAUCA
B10: chr12:46321692:46321693:-_ENSG00000139218_ENST00000369367|hu_hu|motif|central (ssRNA)
RNA: GGGAGUUCUACAGUCCGACGAUCGCUCUCUAUAAGCUCCUCUGUUUUUAGUGUAAAAUCUUUAUGUUCAGUAAUUUCGGCGGGGGAACUCUCUGUUAUUUUUUCUUCAUUAACCACUGACUCUACAUUCUCAGAUAAGUCACUCAACAGAGGAUUGAGCAUCA
B11: 103279366_103279486_885_CDS_ENSG00000134900_ENST00000376065|human|control|control (ssRNA)
RNA: GGGAGUUCUACAGUCCGACGAUCUGUGCUUAGUCUUGUAUCACCAAUCUUGAUGGAAAGAAUUUGAGCACCAGGAGCUACCCCAUUCCGUUCAGGUUCUUCUGGAAAGUGUCCAGCAGCUAUACUAGCUACAUGUGUCCCAUGCAACAGAGGAUUGAGCAUCA
B12: chr3:149686237:149686238:-_ENSG00000070087_ENST00000452853|perfect_dup|motif|central (ssRNA)
RNA: GGGAGUUCUACAGUCCGACGAUCCUCCCCACCUUGACUCUUUGUCCGGAUGUCCAUUGUGCAGUCACCAUCAACGUAUAGGCGGUCUCUGAUCACAGAACACUUCUUUGCUCCAAGAGUCAAACCGUUGGUAAAGAAACCUUCCAACAGAGGAUUGAGCAUCA
B13: chr17:65740002:65740003:+_ENSG00000130935_ENST00000581375|hu_hu|hu_hu_hu_mus_False|58_98 (ssRNA)
RNA: GGGAGUUCUACAGUCCGACGAUCAACAAAUCUUUCUCUGGAUGAAGAACAGGAAGAUUCAUAUUAAAAAAAAUAUAUGUCUAUGAAGUUAGGUGUGGUGGCCACACCUUUACUCCCAGCACUUUGGGAGGUGGAUCUCUGAGUCAACAGAGGAUUGAGCAUCA
B14: 72633974_72634094_1624_3pUTR_ENSMUSG00000002341_ENSMUST00000002412|mouse|control|control (ssRNA)
RNA: GGGAGUUCUACAGUCCGACGAUCGCUCUGCUACCUCAGGCAGCUGGUCUUCUGGGCCCUGCUGCUGGAAGUGUCGACCAUUCAACCCUUUAAAGCGGCCCCUCCUCAUCGUGGGGGUGGGUGCUACCUGUGUGCCCAAGGGUGCAACAGAGGAUUGAGCAUCA

Target: T1, UNK ZnF1-3
Assay: nsRBNS (natural sequence RNA bind-n-seq); RBNS binding buffer (assumed for nsRBNS): 25 mM Tris pH 7.5, 150 mM KCl, 3 mM MgCl2, 0.01% Triton X-100, 500 ug/ml BSA, 20 U/ml SUPERase-In, 4 C; UNK is unkempt and MSI1 is Musashi-1; names of the RNAs are library labels; protein concentration not given here; high values mean tight binding

Row | Binder | binding signal [enrichment R]
1 | B1 | 1.04
2 | B2 | 0.314
3 | B3 | 0.663
4 | B4 | 0.426
5 | B5 | 1.05
6 | B6 | 1.16
7 | B7 | 0.632
8 | B8 | 1.14
9 | B9 | 0.845
10 | B10 | 0.736
11 | B11 | 1.09
12 | B12 | 1.09
13 | B13 | 1.71
14 | B14 | 0.562

From paper PMC12136788
